# Results as given in the supplement of paper PMC8728848.
# Some of the results follow.
# B1: SJA (Sophora japonica) (protein)
# chain: FLGLFNSGGYSSSYQIVAVEFDTYINEWDPKTRHIGIDINSINSTKTVTWGWENGEVAIVLISYKAATETLTVSLTYPSSQTSYILSAAVDLKSILPEWVRIGF
# Tests used:
# Assay in all cases: glycan array binding signal (z-score within array); higher = stronger binding
# Conditions in all cases: glycan notation: IUPAC condensed, linker removed
# [1] = molecular target: Fuc(a1-2)Gal6S(b1-3)GlcNAc
# Summary of the method: (§1)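 Glycan array data were curated from 3228 arrays in the Consortium for Functional Glycomics database and kept only where the protein sequence was available. Glycan names were converted to IUPAC-condensed notation, and columns mapping to the same glycan were averaged. The binding signal is a within-array Z-score, averaged across arrays of the same protein sequence at different concentrations or buffers and across linkers. Negative Z-scores can be read as non-binding.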
# [2] = molecular target: Fuc(a1-2)Gal6S(b1-3)GlcNAc6S
# Summary of the method: as §1
# Fuc(a1-2)Gal6S(b1-4)Glc = molecular target: Fuc(a1-2)Gal6S(b1-4)Glc
# Summary of the method: as §1
# [3] = molecular target: Fuc(a1-2)Gal6S(b1-4)Glc6S
# Summary of the method: as §1
# Fuc(a1-2)GlcNAc = molecular target: Fuc(a1-2)GlcNAc
# Summary of the method: as §1
# Fuc(a1-2)[Gal(a1-3)]Gal = molecular target: Fuc(a1-2)[Gal(a1-3)]Gal
# Summary of the method: as §1
# [4] = molecular target: Fuc(a1-2)[Gal(a1-3)]Gal(b1-3)GalNAc
# Summary of the method: as §1
# [5] = molecular target: Fuc(a1-2)[Gal(a1-3)]Gal(b1-3)GalNAc(b1-3)Gal(a1-4)Gal(b1-4)Glc
# Summary of the method: as §1
# [6] = molecular target: Fuc(a1-2)[Gal(a1-3)]Gal(b1-3)GlcNAc
# Summary of the method: as §1
# [7] = molecular target: Fuc(a1-2)[Gal(a1-3)]Gal(b1-3)GlcNAc(b1-2)Man(a1-3)[Fuc(a1-2)[Gal(a1-3)]Gal(b1-3)GlcNAc(b1-2)Man(a1-6)]Man(b1-4)GlcNAc(b1-4)GlcNAc
# Summary of the method: as §1
# [8] = molecular target: Fuc(a1-2)[Gal(a1-3)]Gal(b1-3)GlcNAc(b1-2)Man(a1-3)[Fuc(a1-2)[Gal(a1-3)]Gal(b1-3)GlcNAc(b1-2)Man(a1-6)]Man(b1-4)GlcNAc(b1-4)[Fuc(a1-6)]GlcNAc
# Summary of the method: as §1
# [9] = molecular target: Fuc(a1-2)[Gal(a1-3)]Gal(b1-3)GlcNAc(b1-3)GalNAc
# Summary of the method: as §1
# [10] = molecular target: Fuc(a1-2)[Gal(a1-3)]Gal(b1-3)GlcNAc(b1-6)GalNAc
# Summary of the method: as §1
# [11] = molecular target: Fuc(a1-2)[Gal(a1-3)]Gal(b1-4)Glc
# Summary of the method: as §1
# [12] = molecular target: Fuc(a1-2)[Gal(a1-3)]Gal(b1-4)GlcNAc
# Summary of the method: as §1
# [13] = molecular target: Fuc(a1-2)[Gal(a1-3)]Gal(b1-4)GlcNAc(b1-2)Man
# Summary of the method: as §1
# [14] = molecular target: Fuc(a1-2)[Gal(a1-3)]Gal(b1-4)GlcNAc(b1-2)Man(a1-3)[Fuc(a1-2)[Gal(a1-3)]Gal(b1-4)GlcNAc(b1-2)Man(a1-6)]Man(b1-4)GlcNAc(b1-4)GlcNAc
# Summary of the method: as §1
# [15] = molecular target: Fuc(a1-2)[Gal(a1-3)]Gal(b1-4)GlcNAc(b1-2)Man(a1-3)[Fuc(a1-2)[Gal(a1-3)]Gal(b1-4)GlcNAc(b1-2)Man(a1-6)]Man(b1-4)GlcNAc(b1-4)[Fuc(a1-6)]GlcNAc
# Summary of the method: as §1
# [16] = molecular target: Fuc(a1-2)[Gal(a1-3)]Gal(b1-4)GlcNAc(b1-3)GalNAc
# Summary of the method: as §1
# [17] = molecular target: Fuc(a1-2)[Gal(a1-3)]Gal(b1-4)GlcNAc(b1-6)GalNAc
# Summary of the method: as §1
# [18] = molecular target: Fuc(a1-2)[Gal(a1-3)]Gal(b1-4)[Fuc(a1-3)]Glc
# Summary of the method: as §1
# [19] = molecular target: Fuc(a1-2)[Gal(a1-3)]Gal(b1-4)[Fuc(a1-3)]GlcNAc
# Summary of the method: as §1
# [20] = molecular target: Fuc(a1-2)[Gal(a1-3)]Gal(b1-4)[Fuc(a1-3)]GlcNAc(b1-3)GalNAc
# Summary of the method: as §1
# [21] = molecular target: Fuc(a1-2)[Gal(a1-4)]Gal(b1-4)GlcNAc
# Summary of the method: as §1
# [22] = molecular target: Fuc(a1-2)[GalNAc(a1-3)]Gal
# Summary of the method: as §1
# [23] = molecular target: Fuc(a1-2)[GalNAc(a1-3)]Gal(b1-3)GalNAc(a1-3)[Fuc(a1-2)]Gal(b1-4)GlcNAc
# Summary of the method: as §1
# [24] = molecular target: Fuc(a1-2)[GalNAc(a1-3)]Gal(b1-3)GalNAc(b1-3)Gal(a1-4)Gal(b1-4)Glc
# Summary of the method: as §1
# [25] = molecular target: Fuc(a1-2)[GalNAc(a1-3)]Gal(b1-3)GlcNAc
# Summary of the method: as §1
# [26] = molecular target: Fuc(a1-2)[GalNAc(a1-3)]Gal(b1-3)GlcNAc(b1-2)Man(a1-3)[Fuc(a1-2)[GalNAc(a1-3)]Gal(b1-3)GlcNAc(b1-2)Man(a1-6)]Man(b1-4)GlcNAc(b1-4)GlcNAc
# Summary of the method: as §1
# [27] = molecular target: Fuc(a1-2)[GalNAc(a1-3)]Gal(b1-3)GlcNAc(b1-2)Man(a1-3)[Fuc(a1-2)[GalNAc(a1-3)]Gal(b1-3)GlcNAc(b1-2)Man(a1-6)]Man(b1-4)GlcNAc(b1-4)[Fuc(a1-6)]GlcNAc
# Summary of the method: as §1
# [28] = molecular target: Fuc(a1-2)[GalNAc(a1-3)]Gal(b1-3)GlcNAc(b1-3)GalNAc
# Summary of the method: as §1
# [29] = molecular target: Fuc(a1-2)[GalNAc(a1-3)]Gal(b1-3)GlcNAc(b1-6)GalNAc
# Summary of the method: as §1
# [30] = molecular target: Fuc(a1-2)[GalNAc(a1-3)]Gal(b1-4)Glc
# Summary of the method: as §1
# [31] = molecular target: Fuc(a1-2)[GalNAc(a1-3)]Gal(b1-4)GlcNAc
# Summary of the method: as §1
# [32] = molecular target: Fuc(a1-2)[GalNAc(a1-3)]Gal(b1-4)GlcNAc(b1-2)Man
# Summary of the method: as §1
# [33] = molecular target: Fuc(a1-2)[GalNAc(a1-3)]Gal(b1-4)GlcNAc(b1-2)Man(a1-3)[Fuc(a1-2)[GalNAc(a1-3)]Gal(b1-4)GlcNAc(b1-2)Man(a1-6)]Man(b1-4)GlcNAc(b1-4)GlcNAc
# Summary of the method: as §1
# [34] = molecular target: Fuc(a1-2)[GalNAc(a1-3)]Gal(b1-4)GlcNAc(b1-2)Man(a1-3)[Fuc(a1-2)[GalNAc(a1-3)]Gal(b1-4)GlcNAc(b1-2)Man(a1-6)]Man(b1-4)GlcNAc(b1-4)[Fuc(a1-6)]GlcNAc
# Summary of the method: as §1
# [35] = molecular target: Fuc(a1-2)[GalNAc(a1-3)]Gal(b1-4)GlcNAc(b1-3)Gal(b1-4)GlcNAc
# Summary of the method: as §1
# [36] = molecular target: Fuc(a1-2)[GalNAc(a1-3)]Gal(b1-4)GlcNAc(b1-3)Gal(b1-4)GlcNAc(b1-3)Gal(b1-4)GlcNAc
# Summary of the method: as §1
# [37] = molecular target: Fuc(a1-2)[GalNAc(a1-3)]Gal(b1-4)GlcNAc(b1-3)GalNAc
# Summary of the method: as §1
# [38] = molecular target: Fuc(a1-2)[GalNAc(a1-3)]Gal(b1-4)GlcNAc(b1-3)[Fuc(a1-2)[GalNAc(a1-3)]Gal(b1-4)GlcNAc(b1-6)]GalNAc
# Summary of the method: as §1
# [39] = molecular target: Fuc(a1-2)[GalNAc(a1-3)]Gal(b1-4)GlcNAc(b1-6)GalNAc
# Summary of the method: as §1
# [40] = molecular target: Fuc(a1-2)[GalNAc(a1-3)]Gal(b1-4)[Fuc(a1-3)]GlcNAc
# Summary of the method: as §1
# [41] = molecular target: Fuc(a1-2)[GalNAc(a1-3)]Gal(b1-4)[Fuc(a1-3)]GlcNAc(b1-3)GalNAc
# Summary of the method: as §1
# [42] = molecular target: Fuc(a1-2)[GalNAc(a1-4)]Gal(b1-4)GlcNAc
# Summary of the method: as §1
binder,measurement,setting,value
B1,glycan array binding signal (z-score),[1],-0.266
same,glycan array binding signal (z-score),[2],-0.325
same,glycan array binding signal (z-score),Fuc(a1-2)Gal6S(b1-4)Glc,-0.328
same,glycan array binding signal (z-score),[3],-0.047
same,glycan array binding signal (z-score),Fuc(a1-2)GlcNAc,-0.179
same,glycan array binding signal (z-score),Fuc(a1-2)[Gal(a1-3)]Gal,0.674
same,glycan array binding signal (z-score),[4],0.908
same,glycan array binding signal (z-score),[5],0.823
same,glycan array binding signal (z-score),[6],0.795
same,glycan array binding signal (z-score),[7],4.34
same,glycan array binding signal (z-score),[8],0.049
same,glycan array binding signal (z-score),[9],0.01
same,glycan array binding signal (z-score),[10],-0.284
same,glycan array binding signal (z-score),[11],1.58
same,glycan array binding signal (z-score),[12],2.19
same,glycan array binding signal (z-score),[13],0.192
same,glycan array binding signal (z-score),[14],4.98
same,glycan array binding signal (z-score),[15],0.742
same,glycan array binding signal (z-score),[16],0.012
same,glycan array binding signal (z-score),[17],-0.097
same,glycan array binding signal (z-score),[18],0.192
same,glycan array binding signal (z-score),[19],6.46
same,glycan array binding signal (z-score),[20],-0.176
same,glycan array binding signal (z-score),[21],-0.165
same,glycan array binding signal (z-score),[22],-0.225
same,glycan array binding signal (z-score),[23],-0.406
same,glycan array binding signal (z-score),[24],-0.202
same,glycan array binding signal (z-score),[25],-0.195
same,glycan array binding signal (z-score),[26],-0.074
same,glycan array binding signal (z-score),[27],-0.14
same,glycan array binding signal (z-score),[28],-0.086
same,glycan array binding signal (z-score),[29],-0.332
same,glycan array binding signal (z-score),[30],-0.2
same,glycan array binding signal (z-score),[31],-0.109
same,glycan array binding signal (z-score),[32],-0.18
same,glycan array binding signal (z-score),[33],0.157
same,glycan array binding signal (z-score),[34],-0.233
same,glycan array binding signal (z-score),[35],-0.057
same,glycan array binding signal (z-score),[36],0.248
same,glycan array binding signal (z-score),[37],-0.022
same,glycan array binding signal (z-score),[38],0.045
same,glycan array binding signal (z-score),[39],-0.199
same,glycan array binding signal (z-score),[40],0.186
same,glycan array binding signal (z-score),[41],-0.065
same,glycan array binding signal (z-score),[42],0.006
